PubChem BioAssay AID485344 (National Center for Advancing Translational Sciences (NCATS), 2010)
About 6,900 (2%) of roughly 340,000 compounds were called active. Cut-off read from the data, not from the text of the source: active = inhibition above about 30%; inactive = below that, where a call was filed. The list shows a part of the results, in another mix than the full data. Where no call is shown, the source filed none.

Target: D(2) dopamine receptor (Homo sapiens) (UniProt P14416)
Test: HTS Assay for Allosteric Antagonists of the Human D2 Dopamine Receptor: Primary Screen for Antagonists; note: 0% is about no effect
Conditions: HEK293 TREx D2 cells, calcium flux, dopamine EC80; at 10 µM; stronger effect = higher value
Outline: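 Tetracycline-induced HEK293 TREx cells expressing D2 receptor forced-coupled to calcium signalling, loaded with no-wash calcium dye. Compounds added and calcium flux read 180 s, then dopamine added at EC80 and read a further 180 s.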

UniProt P14416, sequence (P14416 whole entry, looked up): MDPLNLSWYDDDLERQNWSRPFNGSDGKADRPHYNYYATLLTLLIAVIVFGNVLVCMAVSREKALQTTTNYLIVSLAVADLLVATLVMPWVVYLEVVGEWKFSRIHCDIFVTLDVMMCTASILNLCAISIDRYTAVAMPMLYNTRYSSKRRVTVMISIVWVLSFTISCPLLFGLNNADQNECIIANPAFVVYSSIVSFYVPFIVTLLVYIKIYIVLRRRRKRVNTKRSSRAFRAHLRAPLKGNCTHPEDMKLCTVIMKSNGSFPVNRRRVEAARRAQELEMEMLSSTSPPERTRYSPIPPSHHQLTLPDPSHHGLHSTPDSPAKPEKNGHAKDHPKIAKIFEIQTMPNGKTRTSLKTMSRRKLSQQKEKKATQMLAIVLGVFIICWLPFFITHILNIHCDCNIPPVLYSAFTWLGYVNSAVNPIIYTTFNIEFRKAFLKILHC

| Compound | inhibition |
| --- | --- |
| COc1ccc(-c2noc(C3CC(=O)N(c4cc(C)cc(C)c4)C3)n2)cc1 (stereo unspecified) | -22.7% |
| COc1ccc(/C=C/c2nc(C#N)c(N3CCN(c4ccccc4)CC3)o2)cc1OC | 10.1% |
| O=C(Cc1ccc(F)cc1)N1CCC(c2nc3c(nnn3Cc3ccc(Cl)cc3)c(=O)[nH]2)CC1 | 7.58% |
| CN(C(=O)CSc1cn(CC(=O)N2CCCCC2)c2ccccc12)c1ccccc1 | 27.2% |
| Cc1cccc(NC(=O)C(=O)NCC(c2cccnc2)N2CCOCC2)c1 (stereo unspecified) | -3.9% |
| CCCOc1ccc(C2c3c(-c4ccccc4O)n[nH]c3C(=O)N2Cc2ccncc2)cc1OCC (stereo unspecified) | 0.145% |
| COc1ccc(C)cc1NC(=O)C(=O)NCCc1csc(-c2ccc(C)cc2)n1 | 2.77% |
| C/C(=N/NC(=O)c1ccncc1)c1c[nH]c2ccccc12 | active: 47.9% |
| CCOC(=O)c1ccc(NC(=O)c2oc3ccc4c(c3c2C)C(=O)CC(C)(CC)O4)cc1 (stereo unspecified) | -4.35% |
| Cn1c(=O)c2c(SCC(=O)NCc3ccco3)nc(-c3ccccc3Cl)nc2n(C)c1=O | 10% |
| Cc1ccc(NC(=O)CSc2nc3c(c(=O)[nH]2)CN(Cc2ccc4c(c2)OCO4)CC3)cc1C | 16.1% |
| Cc1ccc(NC(=O)CN2CCN(c3ccccn3)CC2)cc1S(=O)(=O)N(C)C | active: 76.8% |
| CC(C)c1ccc(CNCCSc2nnnn2C)cc1 | -5.59% |
| CCN(CC)CCNC(=O)c1ccc(NC(=O)c2c(C)nn(-c3ccc(F)cc3)c2Cl)cc1 | active: 40.9% |
| CCc1ccccc1NC(=O)c1cc(S(=O)(=O)NCCc2ccc(OC)c(OC)c2)ccc1F | -5.79% |
| CC(=O)Nc1c(C)nn(-c2ccccc2)c1N1CCC(C(=O)Nc2cc(Cl)ccc2C)CC1 | -2.07% |
| CCOc1ccc(NC(=O)C(C)Sc2nnc3cc(C)c4ccccc4n23)cc1 (stereo unspecified) | -3.41% |
| Cc1nnc(NC(=O)c2nc(S(=O)(=O)Cc3ccccc3)ncc2Cl)s1 | 10.9% |
| Cc1nc2c(-c3ccccc3)c(C)nn2c(C)c1CCC(=O)NCc1cccc(Cl)c1 | 17.9% |
| CCCCC(=O)Nc1cccc(OCc2cc(=O)n3ccccc3n2)c1 | 1.75% |
| COc1ccccc1CNC(=O)Cn1ncc2c(=O)oc3ccc(C)cc3c21 | 1.43% |

| Compound | inhibition |
| --- | --- |
| Cc1ccc(Nc2c(-c3ccc(C)cc3)nc3cnccn23)cc1 | 4.48% |
| COc1ccccc1N1CCN(C2CCCN(Cc3c(F)cccc3F)C2)CC1 (stereo unspecified) | active: 53.1% |
| Cc1ccccc1CS(=O)(=O)Cc1ccc(C(=O)NCCc2ccccc2)o1 | -3% |
| COc1cc(C(=O)Nc2cc(C)ccc2OCc2cc(=O)n3cc(C)sc3n2)cc(OC)c1OC | 8.4% |
| NCCc1nnc(SCc2ccc(Cl)cc2)o1 | -9.28% |
| COc1ccccc1C(=O)Nc1nc2ccc(S(=O)(=O)N3CCCC3)cc2s1 | -15.5% |
| COc1ccc(C(=O)CN2C(=O)N(c3cc(C)cc(C)c3)S(=O)(=O)c3ccccc32)cc1 | 4.52% |
| Clc1ccc(CCNc2ncnc3c2c(-c2ccccc2)cn3-c2ccccc2)cc1 | 0.6% |
| CCOC(=O)CSc1nc2cc3c(cc2c(=O)n1CCCC(=O)NCc1ccc2c(c1)OCO2)OCO3 | 7.9% |
| CCCOc1ccccc1C(=O)N1CCC(c2nc3ccccc3s2)CC1 | -2.09% |
| COC(=O)CN1C(=O)CSc2ccc(S(=O)(=O)Nc3ccc(Cl)cc3C)cc21 | 2.02% |
| CCOC(=O)CN1C(=O)C(Sc2n[nH]c(-c3ccc(C)cc3)n2)CCc2ccccc21 (stereo unspecified) | active: 60.8% |
| CC(C)Cc1nn2c(=O)cc(COC(=O)c3cccc(NC(=O)CCc4ccccc4)c3)nc2s1 | 4.61% |
| C=Cc1ccc(CSc2nc(-c3ccc(OC)cc3)nc3c2Cc2c(CO)cnc(C)c2O3)cc1 | -14.4% |
| Cc1ccc2ccc(C(Nc3ccccn3)c3ccccc3)c(O)c2n1 (stereo unspecified) | 5.93% |
| COc1cccc(-c2nc3c(c(SCc4ccccc4)n2)Cc2c(CO)cnc(C)c2O3)c1 | -0.247% |
| NC(=O)c1cc(S(=O)(=O)NCc2ccccc2)cs1 | 10.9% |
| CCCn1c(=O)n(-c2ccccc2)c(=O)c2sc3ccccc3c21 | 5.55% |
| CN(C(=O)CCNC(=O)Cn1cnc2ccccc2c1=O)c1ccccc1F | 4.83% |
| C=CCc1c(C)nc2nc(SCC(=O)Nc3ccccc3CC)nn2c1C | 1.27% |
| CCOc1ccc(CCNC(=O)CN2CCN(Cc3ccc(F)cc3Cl)C2=O)cc1OCC | -2.51% |

| Compound | inhibition |
| --- | --- |
| COc1ccc(NC(=O)CSc2nnc(-c3ccc(C)cc3)o2)cc1 | 11.5% |
| Cc1ccc(Cl)cc1N1CCN(C(=O)c2cn(C3CCCCC3)c(=O)c3c2c2ccccc2n3C)CC1 | 0.766% |
| CN(C)c1ccc(C(CNC(=O)COc2ccc(Cl)cc2)N2CCOCC2)cc1 (stereo unspecified) | 5.15% |
| COc1cccc(N2CCN(C(=O)C3CCC(CNS(=O)(=O)c4ccc(Br)s4)CC3)CC2)c1 (stereo unspecified) | -2.8% |
| Cc1ccc(NC(=O)CN2CCCN(Cc3cc(C)ccc3C)S2(=O)=O)c(Cl)c1 | -4.24% |
| COCCCNC(=O)Cn1c(=O)n(-c2ccc(C)cc2)c(=O)c2c1c1cc(C)ccc1n2C | 4.8% |
| CCS(=O)(=O)N1CC(=O)N(c2ccccc2C)C(C)(C(=O)NC2CCCCC2)C1 (stereo unspecified) | 1.94% |
| COC(=O)C1CCN(S(=O)(=O)c2cc3c4c(c2)C(C)C(=O)N4CCC3)CC1 (stereo unspecified) | -19.5% |
| CC(=O)N1c2ccccc2CC1C(=O)N1CCN(c2ccc(F)cc2)CC1 (stereo unspecified) | -5.81% |
| O=C(Nc1ccc(F)cc1F)c1ccc(CN2CC(=O)N3CCCCC3C2=O)cc1 (stereo unspecified) | 8.73% |
| O=C(CSc1nc2ccccc2c2nc(-c3ccccc3)nn12)Nc1ccc(Br)cc1 | -11.3% |
| CC(C)(C)c1cc(C(C)(C)C)c2oc(=O)c(-c3nc4ccccc4[nH]3)cc2c1 | 8.07% |
| Cc1ccc(Cn2c(SCC(=O)NCc3ccc(Cl)cc3)nc3ccsc3c2=O)cc1 | 8.24% |
| CCc1cc(C(=O)Nc2c(C)nn(Cc3ccc(C)cc3)c2C)no1 | 8.4% |
| CCOC(=O)c1noc2ncnc(N3CCN(c4ccccc4OC)CC3)c12 | 3.91% |
| CCOC(=O)c1c(C)c(-c2ccccc2)n(CC(=O)Nc2cc(OC)cc(OC)c2)c1C | -14.4% |
| CC(C)(C)NS(=O)(=O)c1ccc2nc(NC(=O)c3cccnc3)sc2c1 | 0.178% |
| COC(=O)CNC(=O)Nc1cc(C(=O)NCc2ccc(C)cc2)ccc1N1CCCC1 | -2.02% |
| CC(Oc1ccccc1)C(=O)Nc1nc2ccc(S(N)(=O)=O)cc2s1 (stereo unspecified) | 24.4% |
